Results: publication PMC12136788
Some of the results follow.

B1: ENSG00000124766:be:win_1651|3pUTR|ENSG00000124766|bound_else_gene|NA|bound_elsewhere_windowed (ssRNA)
RNA: GGGAGUUCUACAGUCCGACGAUCUCUGCCCAGCCGGAGGGACGCGGAGGAGGAAGAGGGUAGACAGGGGCGACCUGUGAUUGUUGUUAUUGAUGUUGUUGUUGAUGGCAAAAAAAAAAAAGCGACUUCGAGUUUGCUCCCCUUCAACAGAGGAUUGAGCAUCA
B2: chr2:210612109:210612263:+|CDS|ENSG00000021826|unk|total|mutant (ssRNA)
RNA: GGGAGUUCUACAGUCCGACGAUCUAUUGGUCGUACCUUUGAGGAGAGUUUCCAGAAAGCUUUACGGAUGUGCCACCCAUCUACCGAAGGUUUCACUCCCCGUCUCCCAAUGAACAAAGAAUGGCCAUCUAAUUCCGAUCUCCGCAACAGAGGAUUGAGCAUCA
B3: ENSG00000198589:be:win_7051|CDS|ENSG00000198589|bound_else_gene|NA|bound_elsewhere_windowed (ssRNA)
RNA: GGGAGUUCUACAGUCCGACGAUCCCUGAAUUUUAUUAUCUCCCUGAGAUGUUUGUCAACUUCAAUAAUUAUAAUCUUGGAGUGAUGGAUGAUGGGACAGUAGUGUCUGAUGUCGAACUUCCUCCUUGGGCCAAAACCUCAGAACAACAGAGGAUUGAGCAUCA
B4: chr5:83943476:83943577:-|CDS|ENSG00000164176|msi1|total|mutant (ssRNA)
RNA: GGGAGUUCUACAGUCCGACGAUCAUAAAAAUAAUUUCAAAGAAAGAAGGCUGUGUGACUGACAUUUUUCUGCUCUUCUUUAUCCGGUUUUCCAGGGAAAUUUUGACAAUGACACUCACAGAAAAAAUGUCAUCGACCCUCCCACAACAGAGGAUUGAGCAUCA
B5: chr7:80742675:80742739:-|3pUTR|ENSG00000075223|msi1_unk|total|mutant (ssRNA)
RNA: GGGAGUUCUACAGUCCGACGAUCGCCGCUUGACAAUUCAGUGACUUAAUAUCUAUUCCAUUUGUAUUGUACAUAAAAUUUUCCCGAAAUACACUUUUUUCCAAAGUGUAAGUUUGUGAACCGAUUUCCGCAUGAUGAAACUGUCAACAGAGGAUUGAGCAUCA
B6: chr9:5123879:5124511:-|three_prime_utr|ENSG00000120210|control|control|control (ssRNA)
RNA: GGGAGUUCUACAGUCCGACGAUCCUGGUAAAUUGGAUUGCCAUAUGCAGAAGAAUGAAACUGGACCCAUAUUUAUCACCAUAUAGAAAAAUUAACUCGAUCGAUUACAGACUUAAAUGUAAGAUCUGAAACUAGAAAAAUACUCAACAGAGGAUUGAGCAUCA
B7: chr9:125236489:125236593:-|3pUTR|ENSG00000044574|msi1_unk|total|mutant (ssRNA)
RNA: GGGAGUUCUACAGUCCGACGAUCUGCCGACACUGAUCUGCCCGUGCUGUAAUAUUGUAAAUACUGGACUCAGGAACUUUUGUCCGGAAAAAAUUGAAAGAACUUAAGUCUCGAAUGUAAUUGGAAUCUUCACCUCAGAGUGGACAACAGAGGAUUGAGCAUCA
B8: chr2:135724104:135724205:+|CDS|ENSG00000048991|msi1|FALSE|unique (ssRNA)
RNA: GGGAGUUCUACAGUCCGACGAUCCAACACUGCCAACCCUGAACGCUCUAAACCCAGUGACUUGGCCUCCACCUACACCGUCUUAGCCACAUUCCCCUCCAUUUCAGCUGCACAGAAUGCACUGAAGAAACAAAUUAACUCAGUCAACAGAGGAUUGAGCAUCA
B9: chr4:1716041:1716142:-|3pUTR|ENSG00000168936|msi1|FALSE|unique (ssRNA)
RNA: GGGAGUUCUACAGUCCGACGAUCAGGCUUCCUAGAGCGCUCAGCAGGUGAAGGCAGCAGGGGCCAUGGCCGGGAGCCAGGCCUAGCUUUGAACUGAGUUUCAAGGGCUGCCAAAGAGGGGCAGUGGGUUGGGGUUGUUUUUACCAACAGAGGAUUGAGCAUCA
B10: chr12:106067485:106067586:-|CDS|ENSG00000074590|msi1|total|mutant (ssRNA)
RNA: GGGAGUUCUACAGUCCGACGAUCCCUGAAGAAGCGAAGCAACAGCGAGCAUCGCUCUCACAGCACUGGCUUCAUUGAAGGUGCCGUUGGUCCUGCCUUACCCUCUACUUUCAAGAUGGAGCAGGACUUGUGCAGGACUGGCGUCAACAGAGGAUUGAGCAUCA
B11: chr3:49887309:49887562:-|CDS|ENSG00000164078|control|control|control (ssRNA)
RNA: GGGAGUUCUACAGUCCGACGAUCGGAGGCAGACCCAGCAGUGCGACCCACCUUCAGAGUACUAGUGGGGGAGGUGGAGCAGAUAGUGUCUGCACUGCUUGGGGACCAUUAUGUGCAGCUGCCAGCAACCUACAUGAACUUGGGCAACAGAGGAUUGAGCAUCA
B12: chr2:216674409:216674600:-|3pUTR|ENSG00000115461|msi1|FALSE|unique (ssRNA)
RNA: GGGAGUUCUACAGUCCGACGAUCUCAUGGCAUGACACAGCGGAGACCGCCUCCAACAACGAAUUUGGGGCUACGAAGAGGAAUAGCGAAAAAGCAAAUCUGUUUCAACUGAUGGGAACCCUAUAGCUAUAGAACUUGGGGGCUCAACAGAGGAUUGAGCAUCA
B13: chr12:125025615:125025697:+|3pUTR|ENSG00000184992|msi1_unk|FALSE|overlapping (ssRNA)
RNA: GGGAGUUCUACAGUCCGACGAUCGGACACAUUCCCAGAAGAGCGGAAAGAUCAUUGACGUGGAACUACACACGAAGUGUAAUUAGUGGGGGAAAAAAUAUUUUUUAAACAAAGGAUAUAACCAUAUUUAGUUGUACAGUAAGACAACAGAGGAUUGAGCAUCA
B14: chr17:63766011:63766126:-|CDS|ENSG00000108588|unk|total|mutant (ssRNA)
RNA: GGGAGUUCUACAGUCCGACGAUCGGUGUUUGGGAGUGUCUCUGAAGCCAAGUUUGAUGAUUUUGAGGAUGAGGAGGACACCGCCGAGUAUGAUGAUAAUGACUUCGCUGAAUUUGAGGAUGUCAUGGAAGACUCUGUUACUGACAACAGAGGAUUGAGCAUCA
B15: chr20:58360308:58360409:+|3pUTR|ENSG00000124209|msi1|total|mutant (ssRNA)
RNA: GGGAGUUCUACAGUCCGACGAUCCAUUGAACAUGUCCGCCCCGGAUACGUACAGUAAAUUAACAAUGACCGCAGCAGAUGCCCCGCUCAUCCUGGGUUUGCUUCUGACCUUGUCAUGUGUGUGCCACCAAACACGUUAUUGGCCAACAGAGGAUUGAGCAUCA
B16: chr14:49622334:49622435:+|CDS|ENSG00000168282|unk|FALSE|unique (ssRNA)
RNA: GGGAGUUCUACAGUCCGACGAUCCAAUACUUGACUGUAUCUUGUCUUCCAAAAUUCUGGAAAGUGCUGGUUCCUCAAAUUCCUAGGAUCUUUCAUGCUGGAGACUGUGGUAUGCAUCACAAGAAAACCUGUAGACCAUCCACUCAACAGAGGAUUGAGCAUCA
B17: chr9:33053202:33053303:-|CDS|ENSG00000122692|msi1|FALSE|unique (ssRNA)
RNA: GGGAGUUCUACAGUCCGACGAUCCCUAAAACUUUAGAAAUUUUUAUACCUAAAAAAGGUUUAUAACUUAAAUUUCUGUGUGGUAGAUCUGGAAUAUGAAGACCACAGAAUGUUCAAAUACCUUUAAAUCCCUGGGCAGCACCGCAACAGAGGAUUGAGCAUCA
B18: chr16:50751694:50751795:+|CDS|ENSG00000083799|unk|total|mutant (ssRNA)
RNA: GGGAGUUCUACAGUCCGACGAUCGCUUUUUCAGUGUGAUGAAGAUUGUGGCGUGUUUGUUGCAUUGGACAAGCCCGAACUCACCGAAGAUGAUGACACUGCAUUGGAAAGUGAUUACGCAGGUCCUGGGGACACAAUGCAGGUCAACAGAGGAUUGAGCAUCA
B19: chr2:190659421:190659522:+|CDS|ENSG00000138386|unk|total|mutant (ssRNA)
RNA: GGGAGUUCUACAGUCCGACGAUCAGAGACUGGGUCACAAACCCUGGGCUUUUCAAUCAGCCACUGACUUCCCUUCCUGUCAGCCGCAUACCCAUCUAUAAAUUACCAGAGGGAUCACCAACAUGGCUGGGAAUAUCCUGCAGUCAACAGAGGAUUGAGCAUCA
B20: chr1:17067933:17068034:-|3pUTR|ENSG00000117115|msi1|FALSE|unique (ssRNA)
RNA: GGGAGUUCUACAGUCCGACGAUCACAUAAGGACCCUGGCCUACCCUCCAGCCCAACAGCCAGUUCUGGGUCAGCUGCCAACUUAGGGGUGGUUUGAUUAUCCCAUUGAAAUUCACCAGUGCCUUUGCCAAAGACCCUCUCAUUCAACAGAGGAUUGAGCAUCA
B21: chr15:85581792:85581893:+|CDS|ENSG00000170776|unk|FALSE|bound_elsewhere (ssRNA)
RNA: GGGAGUUCUACAGUCCGACGAUCUGCCCAGGACGCACCUCUGCCUAAGGGGGCAGACUUGAUAGAGGAGGCUGCCAGCCGUAUAGUGGAUGCUGUCAUCGAACAAGUCAAGGCCGCUGGAGCACUGCUUACUGAGGGGGAGGCCAACAGAGGAUUGAGCAUCA
B22: chr6:138432586:138432687:-|CDS|ENSG00000135540|unk|total|mutant (ssRNA)
RNA: GGGAGUUCUACAGUCCGACGAUCGGAGCCCUGGGAAUACAAAUCCUCAGGUAAUGGAAGGGCAUCCCCCCUGAAGCCGCAUUCCGCAACUCCUGGCUAUUCCACUCCCACAAGUAACAUGAGCAGCUGCAGUUUGGACCAAACCAACAGAGGAUUGAGCAUCA

molecular target: MSI1 full-length (mouse, UniProt Q61474 1-362); experiment: nsRBNS (natural sequence RNA bind-n-seq); RBNS binding buffer (assumed for nsRBNS): 25 mM Tris pH 7.5, 150 mM KCl, 3 mM MgCl2, 0.01% Triton X-100, 500 ug/ml BSA, 20 U/ml SUPERase-In, 4 C; UNK is unkempt and MSI1 is Musashi-1; names of the RNAs are library labels; protein concentration not given here; high values mean tight binding
UniProt Q61474, sequence (Q61474 whole entry): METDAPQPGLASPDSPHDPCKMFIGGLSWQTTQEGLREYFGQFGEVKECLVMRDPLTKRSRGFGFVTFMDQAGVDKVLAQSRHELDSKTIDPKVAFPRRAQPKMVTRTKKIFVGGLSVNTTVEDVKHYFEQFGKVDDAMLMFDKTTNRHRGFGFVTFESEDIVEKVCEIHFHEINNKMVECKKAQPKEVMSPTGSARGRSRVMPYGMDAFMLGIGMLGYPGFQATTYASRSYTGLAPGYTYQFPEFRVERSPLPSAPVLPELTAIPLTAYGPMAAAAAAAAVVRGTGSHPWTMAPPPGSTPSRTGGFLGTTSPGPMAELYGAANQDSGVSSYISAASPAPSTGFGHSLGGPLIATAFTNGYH

| Binder | binding signal [enrichment R] |
| --- | --- |
| B1 | 0.401 |
| B2 | 0.365 |
| B3 | 0.286 |
| B4 | 0.352 |
| B5 | 0.56 |
| B6 | 19.7 |
| B7 | 0.411 |
| B8 | 0.984 |
| B9 | 0.567 |
| B10 | 0.281 |
| B11 | 5.47 |
| B12 | 1.07 |
| B13 | 3.62 |
| B14 | 0.324 |
| B15 | 0.359 |
| B16 | 0.32 |
| B17 | 1.01 |
| B18 | 0.396 |
| B19 | 0.591 |
| B20 | 0.501 |
| B21 | 0.676 |
| B22 | 0.55 |
